No constants are given. Whether binding was seen depends on the method and setting. Binding seen in cells or lysates may run through a third protein. Some entries that bind do so weakly or less than the wild type. For some of these results: Where a sequence is shown, tags or fusion partners need not be part of it.

Sequences of proteins named here, by UniProt entry; tags and fusion partners are left off.
UniProt P51863: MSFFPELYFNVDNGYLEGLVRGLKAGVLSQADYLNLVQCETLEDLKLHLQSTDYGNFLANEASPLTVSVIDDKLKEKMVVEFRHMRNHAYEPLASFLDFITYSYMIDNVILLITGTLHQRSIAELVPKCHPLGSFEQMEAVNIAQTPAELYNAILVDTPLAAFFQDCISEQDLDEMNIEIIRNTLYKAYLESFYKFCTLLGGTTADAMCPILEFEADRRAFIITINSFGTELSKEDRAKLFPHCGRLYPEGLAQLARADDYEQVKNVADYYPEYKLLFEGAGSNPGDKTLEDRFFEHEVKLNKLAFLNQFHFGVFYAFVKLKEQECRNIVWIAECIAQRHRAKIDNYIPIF
UniProt P38606: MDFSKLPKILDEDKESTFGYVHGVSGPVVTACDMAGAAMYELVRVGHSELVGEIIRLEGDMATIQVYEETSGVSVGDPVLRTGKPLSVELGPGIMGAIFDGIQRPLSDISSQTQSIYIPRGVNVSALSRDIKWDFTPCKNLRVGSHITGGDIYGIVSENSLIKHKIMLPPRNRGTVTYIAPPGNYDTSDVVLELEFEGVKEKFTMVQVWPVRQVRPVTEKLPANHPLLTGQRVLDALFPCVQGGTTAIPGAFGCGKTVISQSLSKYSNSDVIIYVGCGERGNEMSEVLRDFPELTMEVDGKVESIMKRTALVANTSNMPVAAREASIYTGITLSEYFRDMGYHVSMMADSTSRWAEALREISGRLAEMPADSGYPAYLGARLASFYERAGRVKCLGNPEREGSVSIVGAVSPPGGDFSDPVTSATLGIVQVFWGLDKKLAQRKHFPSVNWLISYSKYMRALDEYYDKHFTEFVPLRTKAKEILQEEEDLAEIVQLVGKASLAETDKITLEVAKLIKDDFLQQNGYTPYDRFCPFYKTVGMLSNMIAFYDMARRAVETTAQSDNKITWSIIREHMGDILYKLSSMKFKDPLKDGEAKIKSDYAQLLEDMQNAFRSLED
UniProt P21281: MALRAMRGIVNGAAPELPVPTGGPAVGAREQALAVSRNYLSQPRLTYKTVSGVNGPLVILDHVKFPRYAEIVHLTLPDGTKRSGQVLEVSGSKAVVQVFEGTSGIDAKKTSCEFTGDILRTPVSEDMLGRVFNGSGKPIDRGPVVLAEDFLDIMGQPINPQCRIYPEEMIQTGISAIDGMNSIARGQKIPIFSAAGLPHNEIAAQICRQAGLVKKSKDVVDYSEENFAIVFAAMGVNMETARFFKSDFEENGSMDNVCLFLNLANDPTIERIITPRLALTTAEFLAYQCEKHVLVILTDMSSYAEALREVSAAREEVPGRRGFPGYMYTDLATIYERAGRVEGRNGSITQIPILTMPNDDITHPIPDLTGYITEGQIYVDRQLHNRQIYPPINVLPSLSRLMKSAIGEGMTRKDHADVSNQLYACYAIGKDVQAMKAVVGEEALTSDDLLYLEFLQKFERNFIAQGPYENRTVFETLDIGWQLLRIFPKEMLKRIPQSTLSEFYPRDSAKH
UniProt P50516: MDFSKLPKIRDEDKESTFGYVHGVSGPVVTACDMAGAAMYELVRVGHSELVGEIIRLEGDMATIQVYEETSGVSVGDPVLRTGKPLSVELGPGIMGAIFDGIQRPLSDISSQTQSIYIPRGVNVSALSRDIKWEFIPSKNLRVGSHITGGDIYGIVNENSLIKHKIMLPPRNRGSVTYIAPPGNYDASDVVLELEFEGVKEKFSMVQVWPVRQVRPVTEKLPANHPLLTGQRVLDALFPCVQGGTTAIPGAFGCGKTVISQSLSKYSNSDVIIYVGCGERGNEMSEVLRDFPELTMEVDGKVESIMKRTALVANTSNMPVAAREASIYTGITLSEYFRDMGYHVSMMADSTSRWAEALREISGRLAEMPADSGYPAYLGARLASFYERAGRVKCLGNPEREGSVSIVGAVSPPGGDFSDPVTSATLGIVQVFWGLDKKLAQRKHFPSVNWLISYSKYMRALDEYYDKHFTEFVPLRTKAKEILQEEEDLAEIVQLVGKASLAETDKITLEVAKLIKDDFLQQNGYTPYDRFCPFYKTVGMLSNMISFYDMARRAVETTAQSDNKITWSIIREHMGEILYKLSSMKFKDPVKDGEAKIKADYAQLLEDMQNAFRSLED
UniProt O75348: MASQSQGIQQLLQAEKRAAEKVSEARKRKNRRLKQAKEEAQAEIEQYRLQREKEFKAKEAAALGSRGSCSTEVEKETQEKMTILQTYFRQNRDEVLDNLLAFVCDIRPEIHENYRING
UniProt P61421: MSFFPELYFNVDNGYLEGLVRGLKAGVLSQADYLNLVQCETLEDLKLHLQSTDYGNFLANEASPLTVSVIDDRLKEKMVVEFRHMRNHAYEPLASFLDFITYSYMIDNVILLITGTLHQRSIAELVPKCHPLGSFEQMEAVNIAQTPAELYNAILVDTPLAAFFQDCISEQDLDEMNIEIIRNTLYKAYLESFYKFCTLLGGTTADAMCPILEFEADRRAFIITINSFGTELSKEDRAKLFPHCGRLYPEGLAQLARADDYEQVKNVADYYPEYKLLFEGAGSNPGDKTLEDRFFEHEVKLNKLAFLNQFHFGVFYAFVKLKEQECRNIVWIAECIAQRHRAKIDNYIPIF
UniProt Q9UI12: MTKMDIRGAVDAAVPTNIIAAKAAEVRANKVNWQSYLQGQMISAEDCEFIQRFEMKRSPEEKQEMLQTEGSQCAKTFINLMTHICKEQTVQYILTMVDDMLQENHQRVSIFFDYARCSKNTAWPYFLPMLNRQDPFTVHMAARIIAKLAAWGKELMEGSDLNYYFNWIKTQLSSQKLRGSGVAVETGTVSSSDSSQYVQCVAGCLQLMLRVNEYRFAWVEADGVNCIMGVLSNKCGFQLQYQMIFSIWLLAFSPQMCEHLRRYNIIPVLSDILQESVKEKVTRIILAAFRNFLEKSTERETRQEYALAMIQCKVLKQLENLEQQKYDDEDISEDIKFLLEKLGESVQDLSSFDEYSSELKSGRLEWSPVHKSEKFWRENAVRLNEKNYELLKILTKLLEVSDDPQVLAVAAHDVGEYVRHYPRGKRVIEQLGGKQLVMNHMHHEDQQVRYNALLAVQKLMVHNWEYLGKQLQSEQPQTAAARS

Test [1] addresses T1, FLAG-tagged full-length TCF25 (Transcriptional Factor 25) (not stated (human or mouse cDNA cloned)) (UniProt Q9BQ70).
T1 sequence: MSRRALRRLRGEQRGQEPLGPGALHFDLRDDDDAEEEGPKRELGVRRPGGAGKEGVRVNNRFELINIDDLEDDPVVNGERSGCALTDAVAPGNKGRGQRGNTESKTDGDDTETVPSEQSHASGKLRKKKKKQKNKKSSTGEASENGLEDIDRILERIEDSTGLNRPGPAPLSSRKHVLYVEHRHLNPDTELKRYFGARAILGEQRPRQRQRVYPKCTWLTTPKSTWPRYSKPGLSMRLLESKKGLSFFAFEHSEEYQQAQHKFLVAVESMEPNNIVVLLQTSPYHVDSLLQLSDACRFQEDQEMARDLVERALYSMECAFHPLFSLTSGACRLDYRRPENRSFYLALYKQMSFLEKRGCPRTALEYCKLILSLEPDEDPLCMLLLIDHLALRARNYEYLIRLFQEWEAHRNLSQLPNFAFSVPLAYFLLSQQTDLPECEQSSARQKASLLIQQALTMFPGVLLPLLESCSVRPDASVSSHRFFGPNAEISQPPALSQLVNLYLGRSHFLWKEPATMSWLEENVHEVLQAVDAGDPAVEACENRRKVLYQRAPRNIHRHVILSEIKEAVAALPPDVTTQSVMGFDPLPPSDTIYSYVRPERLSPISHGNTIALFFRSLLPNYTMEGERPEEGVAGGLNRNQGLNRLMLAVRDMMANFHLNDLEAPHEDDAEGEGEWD
The test can be described thus: co-IP; HEK293T co-transfected with FLAG-tagged TCF25 (or its domains) and a tagged V-ATPase subunit, starved without glucose at the indicated time points; lysates in IP buffer precipitated with FLAG antibody and protein A/G magnetic beads at 4°C overnight, immunoblot.

The target of test [2] is T2, endogenous TCF25 of mouse dermal fibroblasts (mouse (endogenous in MDF)) (UniProt Q8R3L2).
T2 sequence: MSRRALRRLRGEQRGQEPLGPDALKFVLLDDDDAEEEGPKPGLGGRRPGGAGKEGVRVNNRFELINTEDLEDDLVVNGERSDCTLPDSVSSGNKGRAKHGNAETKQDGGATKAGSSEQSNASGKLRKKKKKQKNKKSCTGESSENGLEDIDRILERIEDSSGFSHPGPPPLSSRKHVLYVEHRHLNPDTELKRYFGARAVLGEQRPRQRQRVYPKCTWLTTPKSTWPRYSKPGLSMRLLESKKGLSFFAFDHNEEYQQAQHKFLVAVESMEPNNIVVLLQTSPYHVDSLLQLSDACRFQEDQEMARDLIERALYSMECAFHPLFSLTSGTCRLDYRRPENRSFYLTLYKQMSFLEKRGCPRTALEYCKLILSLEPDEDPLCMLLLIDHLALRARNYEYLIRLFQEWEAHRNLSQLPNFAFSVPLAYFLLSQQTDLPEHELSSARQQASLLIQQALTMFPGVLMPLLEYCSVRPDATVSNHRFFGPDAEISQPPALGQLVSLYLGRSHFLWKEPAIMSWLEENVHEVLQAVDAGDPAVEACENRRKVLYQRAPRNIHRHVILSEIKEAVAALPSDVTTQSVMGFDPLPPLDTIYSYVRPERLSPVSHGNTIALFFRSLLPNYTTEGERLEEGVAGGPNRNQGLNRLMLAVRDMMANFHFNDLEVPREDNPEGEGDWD
Put plainly: co-IP; endogenous proteins; MDF or HeLa cells starved without glucose at the indicated time points; lysates precipitated with TCF25 antibody (IP:TCF25), immunoblot. On the technique in general: A western blot detects proteins with antibodies after separation by electrophoresis.

In test [3] the target is endogenous ATP6V0D1 of mouse dermal fibroblasts (mouse (endogenous in MDF)) (UniProt P51863). The test can be described thus: proximity ligation; Duolink PLA with antibodies against ATP6V1A and ATP6V0D1 in fixed WT, TCF25-/- and TCF25 reconstituted MDFs starved without glucose at the indicated time points.
Test [4] addresses HA-tagged V-ATPase V1 subunit A (ATP6V1A) (human) (UniProt P38606). Put plainly: co-IP; HEK293T transfected with HA-ATP6V1A with or without FLAG-TCF25, starved without glucose at the indicated time points; IP:HA, immunoblot for endogenous ATP6V0D1.

For “HA-tagged ATP6V1B2 (from UniProt P21281 1-511)”, in test [1], the binding entry is recorded as “no binding”.

Take “endogenous ATP6V1A of mouse dermal fibroblasts (from UniProt P50516 1-617)”: the binding entry in test [2] and in test [3] was “binds” throughout. In the case of “HA-tagged ATP6V1G1 (from UniProt O75348 1-118)”, in test [1], the binding result was “no binding”.

On to “Myc-tagged V-ATPase V0 subunit D1 (ATP6V0D1) (from UniProt P61421 1-351)”, for which, in test [1], the binding entry was “no binding”. In the case of “endogenous ATP6V0D1 of HEK293T cells (from UniProt P61421 1-351)”, the binding result in test [4] is on record as “binds”. For “HA-tagged ATP6V1H (from UniProt Q9UI12 1-483)”, in test [1], the binding entry is on record as “no binding”.

These data come from publication PMC13010378.
